Laboratory results: the supplement of paper PMC3334620
Whole data set: some 33,000 sequences, median “E-score (-0.5 to 0.5)” near -0.013, cut for the highest 2% near 0.3. Some of the results follow.

Molecular target: T1, Msn1 (UniProt P22148)
T1 sequence: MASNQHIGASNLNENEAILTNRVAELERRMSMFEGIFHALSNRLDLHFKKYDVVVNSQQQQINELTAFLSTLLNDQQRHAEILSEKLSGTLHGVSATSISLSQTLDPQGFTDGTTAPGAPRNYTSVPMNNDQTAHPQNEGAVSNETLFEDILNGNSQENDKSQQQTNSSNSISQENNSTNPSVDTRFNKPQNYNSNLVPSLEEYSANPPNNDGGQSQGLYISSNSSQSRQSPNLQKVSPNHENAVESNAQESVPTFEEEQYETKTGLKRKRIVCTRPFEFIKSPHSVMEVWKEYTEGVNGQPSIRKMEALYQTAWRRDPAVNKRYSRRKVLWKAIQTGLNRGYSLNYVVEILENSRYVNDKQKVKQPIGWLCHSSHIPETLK
Test: PBM E-score (8-mer binding enrichment) (E-score (-0.5 to 0.5)); higher = stronger / more preferred TF binding; most listed sequences are background and not binding sites
Conditions: protein concentration: 200 nM; construct: GST-full length
Protocol: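 Universal 'all 10-mer' protein binding microarrays (Agilent AMADID 015681) probed with GST-tagged S. cerevisiae TFs (full-length or DBD) made by in vitro transcription/translation (PURExpress), about 100-200 nM. Bound TF was detected with fluorescent anti-GST. Each ungapped 8-mer (which stands for itself and its reverse complement) is scored by the PBM enrichment score (E-score), a modified Wilcoxon-Mann-Whitney statistic from -0.5 to +0.5, computed with the Universal PBM Analysis Suite. Scale: above 0.35 generally sequence-specific binding.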

Sequence | PBM E-score
TGAGGAAA | 0.0866
CGTGAAGC | -0.311
ACCAACGT | 0.117
ACGGCTAC | -0.19
CAGTTAAG | 0.0527
CCGGACCC | -0.0546
ATGAAAAA | 0.216
AAGGACGC | 0.167
AGTTTCAG | -0.152
ACCGGTCT | -0.131
GAGATGCC | -0.00529
ATCAATAC | 0.00754
GACAACGA | 0.164
TAGGTCGA | 0.0604
CCCTTATC | -0.16
GGCCCCTA | -0.302
CTTTAGCC | 0.0483
CTGTGAAC | -0.0634
CGTTCGTC | 0.108
ATAGTGGA | 0.0789
CATCGTGA | -0.0776
ACAAACGG | 0.298
AGAGCTCC | -0.268
GTAGGCTA | -0.0319
ATACAACA | 0.0611

Sequence | PBM E-score
ATCGGCAG | -0.0545
ACTCACTA | 0.0267
ATATTAGC | 0.00702
ATAGCGGC | 0.0571
AGGTCACG | -0.225
GGTAGGAC | 0.238
CCTAGCAC | -0.141
AATGACAC | 0.213
ACCACCGC | -0.206
CAATTACA | 0.0298
CATAGAGA | 0.113
CCGGACAG | 0.227
CCCGCCTC | -0.154
CCCGGAAG | -0.0982
AGACGCTA | -0.0941
AATGGCAA | 0.181
CGGAAATC | 0.118
ACGTTCAC | 0.0166
CTGTACAC | -0.0168
ACTATAGC | -0.0316
TAAGATTA | -0.0458
CTCGACGC | 0.0992
CCATCTAC | -0.0608
CCAGATGG | -0.255
ATTAATGC | 0.0284

Sequence | PBM E-score
CGCAAAGA | -0.0742
GCTGCTCA | -0.105
ATGGATCG | 0.0194
CACAAGAG | 0.0612
GAATGCAC | -0.00702
ACCCGCTC | -0.299
CACCGCTG | -0.198
AGAACTAC | -0.0862
GAAGCCAA | -0.134
ATGGCTCG | -0.00413
CAGCATGC | -0.113
TGCGCGCA | 0.00461
CTCACTCA | 0.0343
ATCCTTCC | -0.368
CGACAAGA | 0.121
ATAGGGAA | -0.169
GGCACTCA | -0.349
AGCAACTG | 0.0149
ACTAAAAT | 0.12
TCGGACGA | 0.199
CTATTCCA | 0.185
GTCCTGAA | 0.241
AATCCAGA | 0.106
ATGCGGCG | -0.0411
CAGAAGAA | -0.119

Sequence | PBM E-score
AAACTGTT | 0.08
AACTCGTG | 0.0411
AACATTCT | 0.108
CTGGACAC | 0.29
AGCCCGGG | -0.089
AATCGCCC | -0.277
AGGATCAT | -0.0592
GCGGGGTA | -0.0904
CTAAATAA | 0.155
TACAATGA | 0.0558
GGTGAGGA | -0.145
GCAATCAA | 0.102
ATTACCCC | 0.0887
CCGCGACA | 0.299
GCTACTAC | 0.0603
ATTTGGAC | 0.366
TAGCAAGA | 0.0309
AAGCACGT | -0.0893
CGGTCATA | -0.132
ATTCCAAG | -0.0629
GGATGCTA | 0.0152
ATGTCCCA | 0.485
AATCATAA | 0.203
ATGTGGTC | -0.0995
TAAGTGCA | 0.11

Sequence | PBM E-score
AGACACTA | 0.204
ACCCAAAT | 0.193
GATAGGGA | -0.0954
CCGCTACC | 0.0857
GAGAAAGC | 0.017
CCAGTTGA | -0.0607
GATAGATC | 0.0608
ACTCCTGA | 0.103
AACCACGT | -0.0931
TACCTGCA | -0.132
ACCCCGCT | -0.187
CACTCGGA | 0.131
GACGCGTA | 0.173
GCTGATTA | 0.0491
AGAAACGG | 0.171
CATACTAC | -0.0556
GGTAACAA | 0.203
AGTACACG | 0.282
AAAATTCT | -0.0579
GAAATCAC | 0.157
CGGGGATC | -0.255
CTGTTCCC | -0.115
CAGCTCGA | -0.123
AAGTTGTC | 0.298
AGTCGCCG | -0.0359

Sequence | PBM E-score
CTAATTAA | -0.0214
AGGGGAGC | -0.419
CACCGGAG | -0.0567
ACAAACCC | 0.247
AACAATAT | 0.264
GGACGGCC | -0.247
TACGCCCA | -0.0824
CGGTATAG | -0.0764
CATCCTTC | -0.287
CTTAATGC | 0.0167
AAACGGTG | 0.0164
AAACAATT | 0.0967
CCCCTCAG | -0.343
AACCTGGA | 0.119
CATACAAC | 0.0723
CCGGATTC | -0.00075
CTCCTACA | -0.187
AGCTTCCC | -0.237
AACCACTT | -0.0717
TGCTACAA | 0.0284
AAGTCTAA | 0.0915
TGTAGAAA | -0.0523
CGGGTCGC | -0.198
TAGGTAAA | -0.101
TCTCATAA | -0.0283

Sequence | PBM E-score
CAATTTAG | 0.121
CCTTCGCC | -0.397
ATGCTCAC | -0.256
ACATCTCC | 0.141
ATTCGCGG | 0.167
AACGTCAG | -0.248
CATCGTTC | -0.00786
AGCCGCAC | -0.135
AACGCTGT | -0.0252
ATTAGGGC | -0.0238
AATATCCC | -0.0769
ATTGAACC | -0.0628
CAAATGCG | 0.0944
TCCTACCA | -0.0959
ATTCCTTG | -0.0502
GCAGTTAA | 0.0544
GAAGGAAA | -0.218
GGGTCAAC | 0.0297
TGAGGGCA | -0.353
ACATCTAC | 0.225
GGGTTCGA | -0.124
CCAGGCAC | -0.124
